In the supplement of paper PMC9446081 one finds relative growth data, which are given here for 91 molecules.

About 220 (0.56%) of roughly 39,000 compounds showed activity. The list shows a part of the results.
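Note: static incubation at 37 °C against the wild-type strain, values averaged over two biological replicates.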

For the assay, the system named is Escherichia coli K-12 BW25113. The assay is described as follows: relative growth (OD600 normalised to plate interquartile mean) (fraction); higher = less growth inhibition, active = 0.2 or less. The settings on record: 50 µM; LB; incubation time: overnight (16-24 h).
Consider `CC(C)C[C@@H](N)C1(c2ccc(Cl)cc2)CCC1`, for which the relative growth was inactive: 0.938.

On to `c1cn(C[C@H]2CC[C@H]3NCCO[C@@H]23)cn1`, for which the relative growth was inactive: 0.855.

As to `CN1[C@@H]2CC[C@H]1CNC(=O)C2`, the relative growth was inactive: 1. The value for `C[C@@H]1[C@H](O)[C@@H](C)/C=C\C=C/CC\C=C/C=C\C=C/C=C\[C@@H](O[C@@H]2O[C@H](C)[C@@H](O)[C@H](N)[C@@H]2O)C[C@@H]2O[C@](O)(C[C@@H](O)[C@H](O)CC[C@@H](O)C[C@@H](O)C[C@@H](O)CC(=O)O[C@H]1C)C[C@H](O)[C@H]2C(=O)O` was inactive: 1.01; that for `CO[C@H]1[C@@H](O)C[C@@H](O[C@H]2[C@@H](O)C[C@@H](O[C@H]3[C@@H](O)C[C@@H](O[C@H]4CC[C@@]5(C)[C@@H](CC[C@H]6[C@@H]5C[C@@H](O)[C@@]5(C)[C@H](C7=CC(=O)OC7)CC[C@@]65O)C4)O[C@@H]3C)O[C@@H]2C)O[C@@H]1C` was inactive: 1. As for `Cc1ccc(N=CN(C)C=Nc2ccc(C)cc2C)c(C)c1`, the figure is inactive: 1.03; as for `CC(C)N(C)C[C@H]1CO[C@]2(CNCCOC2)C1`, inactive: 1.04. As for `CC(C)c1ccc2c(c1)[C@H](O)[C@H](N)CCO2`, the figure is inactive: 0.876; as for `CN(C)C(=O)C(CCN1CCC(O)(c2ccc(Cl)cc2)CC1)(c1ccccc1)c1ccccc1.Cl`, inactive: 1.01.

With `CC1=C[C@H]2O[C@@H]3[C@H](O)[C@@H](O[C@H]4O[C@H](CO)[C@@H](O)[C@H](O)[C@H]4O)[C@](C)([C@@]2(CO)CC1)[C@]31CO1`, the relative growth was inactive: 0.947.

`CC[C@@H](C)C(=O)O[C@@H]1C[C@@]2(C)[C@H](c3ccoc3)OC(=O)C[C@]23O[C@@]2(C)O[C@]34[C@H](OC(=O)C(C)C)[C@@]3(O)[C@@H](OC(=O)[C@@]5(C)O[C@@H]5C)[C@@]5(C)C[C@]3(O)[C@@](C)([C@H]5CC(=O)OC)[C@@]14O2`: the relative growth was inactive: 1.01. The value for `O=C([O-])Cc1ccccc1.[Na+]` was inactive: 0.934. The value for `CN1[C@@H]2CC[C@@H]1CC(N)C2` (stereo partly specified) was inactive: 1.01. On to `N#CCCN.O=C(O)C=CC(=O)O`, for which the relative growth is inactive: 0.891. The value for `C[N+](C)(C)CCCCCCCCCC[N+](C)(C)C.[Br-].[Br-]` was inactive: 1.05; that for `Cl.NCCc1cc(O)c(O)cc1O` was inactive: 1.04; that for `Cc1ncc(CNC(=O)N(CCCl)[NH2+][O-])c(N)n1` was inactive: 0.988. Turning to `c1ccc(CN2CCNCC2)nc1`, the relative growth was inactive: 1.01. In the case of `C[C@H]1O[C@H](n2cnc3c(N)ncnc32)C[C@H]1O`, the relative growth is inactive: 0.986. The value for `OCc1ccc2c(c1)OCO2` was inactive: 1.03. The value for `CNc1ccc2oc(C[C@H]3O[C@@]4(CC[C@H]3C)O[C@H]([C@H](C)C(=O)c3ccc[nH]3)[C@H](C)C[C@H]4C)nc2c1C(=O)O` was inactive: 0.962; that for `NC1(c2ccc(Cl)cc2)CC1` was inactive: 0.995. As to `C[C@H](CO)N1C[C@H](C)[C@H](CN(C)C(=O)Oc2ccc3ccccc3c2)OCc2cnnn2CCCC1=O`, the relative growth was inactive: 1.01. The value for `COc1cccc(C2(O)CCCCC2CN(C)C)c1.Cl` (stereo unspecified) was inactive: 1.03; that for `COCCCNC(=O)[C@H]1N[C@H]2C[C@@H]1C[C@@H]2F` was inactive: 0.957. As for `C[C@H](N)Cn1ccc2cc(F)c(Cl)cc21`, the figure is inactive: 0.987. The value for `CN1[C@@H]2CNc3ccccc3[C@@H]2[C@@H]1CO` was inactive: 0.987; that for `O=C1C=CC(=O)c2c(O)cccc21` was inactive: 0.791; that for `O=C(c1ccno1)N1C[C@@H]2CCN[C@@H]2C1` was inactive: 0.932. With `[N-]=[N+]=Nc1ccccc1C[C@@]1(C(=O)NCc2ccccc2)N=C(c2ccc(OCCCO)cc2)O[C@@H]1c1ccccc1N=[N+]=[N-]`, the relative growth is inactive: 1.03. With `C1CCc2nnnn2CC1`, the relative growth was inactive: 1.1. As for `CN(CC[C@H](N)CC(=O)N[C@H]1C=C[C@@H](n2ccc(N)nc2=O)O[C@@H]1C(=O)O)C(=N)N`, the figure is inactive: 0.955. Take `C=CCN=C=S`: the relative growth was inactive: 0.981. As for `CCNS(=O)(=O)C(F)(F)C(F)(F)C(F)(F)C(F)(F)C(F)(F)C(F)(F)C(F)(F)C(F)(F)F`, the figure is inactive: 0.972; as for `C[C@@H]1O[C@@H](O[C@@H]2C[C@@H](O)[C@]3(CO)[C@H]4[C@H](O)C[C@]5(C)[C@@H](C6=CC(=O)OC6)CC[C@]5(O)[C@@H]4CC[C@]3(O)C2)[C@H](O)[C@H](O)[C@H]1O`, inactive: 0.995.

Take `CC1(C)C(O)CC(=O)C2(C)C1CC(=O)C1(C)C2CCC2(C)C(c3ccoc3)OC(=O)C3OC321` (stereo unspecified): the relative growth is inactive: 1.09.

For the molecule `COC1=CC2C3Cc4ccc(OC)c(O)c4C2(CCN3C)CC1=O` (stereo unspecified), the relative growth is inactive: 1.05.

As to `Br.CC(Cc1ccc(O)cc1)NCC(O)c1cc(O)cc(O)c1` (stereo unspecified), the relative growth was inactive: 1.01. The value for `CI.O=C(COc1ccc(Cl)cc1Cl)OC[C@H]1CCCN2CCCC[C@@H]12` was inactive: 1; that for `COC(=O)[C@]1(Cc2ccccc2N=[N+]=[N-])N=C(c2ccc(OCCCO)cc2)O[C@@H]1c1ccccc1N=[N+]=[N-]` was inactive: 1.03. As for `O=C1CC(=O)N(Cc2ccccc2)C(=O)N1`, the figure is inactive: 0.972. In the case of `NCC(=O)Nc1ccc(Br)cc1C(=O)c1ccccc1`, the relative growth is inactive: 0.997.

Turning to `CS(=O)(=O)c1ccc(C(=O)C2C(=O)CCCC2=O)c([N+](=O)[O-])c1`, the relative growth is inactive: 1.07.

As for `CN1CCO[C@H]2CN(c3ncccn3)C[C@@H]21`, the relative growth was inactive: 1.01. The value for `O=C(O)CF.[NaH]` was inactive: 0.985; that for `Cc1cccc(CC2(N)CC2)c1` was inactive: 1.01. As for `C[N+]1(C)C2CC(OC(=O)C(CO)c3ccccc3)CC1C1OC12.[Br-]` (stereo unspecified), the figure is inactive: 1.05. The value for `C=C(C)[C@@H]1[C@H]2OC(=O)[C@H]1[C@]1(O)C[C@H]3O[C@]34C(=O)O[C@H]2[C@]14C` was inactive: 1.01. As to `O=C1NC(=O)C(=C[C@@H]2CC=CCC2)C(=O)N1`, the relative growth was inactive: 1.01. As for `OCC1CCCN2CCCCC12` (stereo unspecified), the figure is inactive: 1.04. The value for `Clc1ccc(Cl)cc1` was inactive: 1.01; that for `C1CCNCC1` was inactive: 1.01. As for `Nc1ccc2c(c1)Cc1ccccc1-2`, the figure is inactive: 0.969; as for `CCN(CC)C(=O)C1=NO[C@]2(CCNC2)C1`, inactive: 0.996.

Consider `CC(=O)OC1CCC2(C)C(=CCC3C4CCC(=O)C4(C)CCC32)C1` (stereo unspecified), for which the relative growth was inactive: 1.07. The value for `O=C1COC2(CNC2)CN1` was inactive: 0.94; that for `COS(C)(=O)=O` was inactive: 1.05; that for `C1CN2CN3CCN(CN1C3)C2` was inactive: 0.984.

With `CCn1nnnc1N`, the relative growth was inactive: 0.993. The value for `OC[C@H]1O[C@@H](Oc2ccc(/C=C/c3cc(O)cc(O)c3)cc2O)[C@H](O)[C@@H](O)[C@@H]1O` was inactive: 0.996. In the case of `CC1=CC(=O)c2c(O)cccc2C1=O`, the relative growth was inactive: 0.761. As for `C=C1CC2C(CCC3(C)C(=O)CCC23)C2(C)C=CC(=O)C=C12` (stereo unspecified), the figure is inactive: 0.988; as for `CNCc1cccnc1`, inactive: 0.995. As for `C[C@]12CC[C@](C)(O1)[C@H](C(=O)O)[C@@H]2C(=O)O`, the figure is inactive: 1.01. The value for `CC1(C)OCC2(CNC2)CO1` was inactive: 0.944; that for `C[C@@H]1CN([C@@H](C)CO)C(=O)c2cc(NC(=O)Nc3ccccc3)ccc2O[C@@H](C)CCCCO[C@H]1CN(C)C(=O)Oc1ccccc1` was inactive: 1.02; that for `O=C(NC[C@H]1CCC2(CCNCC2)O1)C1CC1` was inactive: 1.04. Regarding `COc1ccc(CN2CCNCC2)c(OC)c1OC.Cl.Cl`, the relative growth was inactive: 0.991. Regarding `C[C@H]1CN([C@@H](C)CO)C(=O)CCCn2nncc2CO[C@H]1CN(C)C(=O)Oc1cccc2ccccc12`, the relative growth is inactive: 1.

With `CCN1C[C@]23CNC[C@@H](C[C@H]2S1(=O)=O)O3`, the relative growth is inactive: 1.01. The value for `CCCCC(=O)N1C[C@@H]2CCNC[C@@H]21` was inactive: 0.951; that for `CC1(C)CCNC1=O` was inactive: 1.04; that for `CC(=O)[O][Hg][c]1ccccc1` was active: 0.0564. The value for `C=C(C)[C@H]1CN[C@H](C(=O)O)[C@H]1CC(=O)O` was inactive: 0.978; that for `N#Cc1cccnc1` was inactive: 1.01; that for `CN1[C@@H](CO)[C@@H]2c3ccccc3NC[C@@H]21` was inactive: 1.01.

Regarding `CC(=O)O[C@H]1C[C@@H]2CC[C@@H]3[C@H](CC[C@@]4(C)[C@H]3C[C@H]([N+]3(C)CCCCC3)[C@@H]4OC(C)=O)[C@@]2(C)C[C@@H]1[N+]1(C)CCCCC1`, the relative growth was inactive: 1. As for `O[C@H]1[C@H](O)[C@@H](O)CN2CC[C@H](O)[C@H]12`, the figure is inactive: 0.994. The value for `CCOP(=S)(OCC)SCSP(=S)(OCC)OCC` was inactive: 1.02. For `C[C@@H]1CN([C@H](C)CO)C(=O)CCCn2nncc2CO[C@H]1CN(C)C(=O)Oc1ccc2ccccc2c1`, the relative growth is inactive: 1.02. As for `CC(C)(C)C(O)(CCc1ccc(Cl)cc1)Cn1cncn1` (stereo unspecified), the figure is inactive: 1.05; as for `c1cnc(N2CCOC[C@@]3(CCCNC3)C2)cn1`, inactive: 1; as for `CC=Cc1ccc2c(c1)OCO2`, inactive: 0.883.

Turning to `Nc1nc(N)nc(NC2CC2)n1`, the relative growth was inactive: 0.895. The value for `Cc1ccc(-c2nc3ccc(C)cn3c2CC(=O)N(C)C)cc1` was inactive: 0.836. Regarding `N#CCCN1CCCC2(CCCC2)C1`, the relative growth is inactive: 0.99.

As to `Cl.NCCc1ccccc1`, the relative growth was inactive: 0.983. As for `C[C@@H]1CN([C@H](C)CO)C(=O)c2c(c3ccccc3n2C)-c2ccccc2CO[C@H]1CN(C)C(=O)Oc1ccccc1`, the figure is inactive: 1.01; as for `CN1C[C@H]2CN[C@H]2C1`, inactive: 1.04; as for `O=[N+]([O-])c1ccc(N(CCO)CCO)c2c1no[n+]2[O-]`, active: 0.0367. The value for `CO[C@H]1[C@@H](O)[C@@H](O[C@H]2CC[C@]3(C=O)[C@@H]4[C@@H](CC[C@]3(O)C2)[C@@]2(O)CC[C@H](C3=CC(=O)OC3)[C@@]2(C)C[C@H]4OC(C)=O)O[C@@H](C)[C@@H]1OC(C)=O` was inactive: 1.
